{"source": "paper PMC4336329", "about": "(PLoS ONE, 2015)", "note": "In all, about 310,000 compounds went through this assay and about 14,000 (4.5%) showed an effect of 50% or more. Effects have a minus sign here. This is one part of the list.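 Further: peak tail current of the secondary pulse compared with the same well before compound.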"}
{"biological_target": "human ether-à-go-go-related gene (hERG) potassium channel (human, UniProt Q12809)", "sequence (Q12809 whole entry, looked up)": "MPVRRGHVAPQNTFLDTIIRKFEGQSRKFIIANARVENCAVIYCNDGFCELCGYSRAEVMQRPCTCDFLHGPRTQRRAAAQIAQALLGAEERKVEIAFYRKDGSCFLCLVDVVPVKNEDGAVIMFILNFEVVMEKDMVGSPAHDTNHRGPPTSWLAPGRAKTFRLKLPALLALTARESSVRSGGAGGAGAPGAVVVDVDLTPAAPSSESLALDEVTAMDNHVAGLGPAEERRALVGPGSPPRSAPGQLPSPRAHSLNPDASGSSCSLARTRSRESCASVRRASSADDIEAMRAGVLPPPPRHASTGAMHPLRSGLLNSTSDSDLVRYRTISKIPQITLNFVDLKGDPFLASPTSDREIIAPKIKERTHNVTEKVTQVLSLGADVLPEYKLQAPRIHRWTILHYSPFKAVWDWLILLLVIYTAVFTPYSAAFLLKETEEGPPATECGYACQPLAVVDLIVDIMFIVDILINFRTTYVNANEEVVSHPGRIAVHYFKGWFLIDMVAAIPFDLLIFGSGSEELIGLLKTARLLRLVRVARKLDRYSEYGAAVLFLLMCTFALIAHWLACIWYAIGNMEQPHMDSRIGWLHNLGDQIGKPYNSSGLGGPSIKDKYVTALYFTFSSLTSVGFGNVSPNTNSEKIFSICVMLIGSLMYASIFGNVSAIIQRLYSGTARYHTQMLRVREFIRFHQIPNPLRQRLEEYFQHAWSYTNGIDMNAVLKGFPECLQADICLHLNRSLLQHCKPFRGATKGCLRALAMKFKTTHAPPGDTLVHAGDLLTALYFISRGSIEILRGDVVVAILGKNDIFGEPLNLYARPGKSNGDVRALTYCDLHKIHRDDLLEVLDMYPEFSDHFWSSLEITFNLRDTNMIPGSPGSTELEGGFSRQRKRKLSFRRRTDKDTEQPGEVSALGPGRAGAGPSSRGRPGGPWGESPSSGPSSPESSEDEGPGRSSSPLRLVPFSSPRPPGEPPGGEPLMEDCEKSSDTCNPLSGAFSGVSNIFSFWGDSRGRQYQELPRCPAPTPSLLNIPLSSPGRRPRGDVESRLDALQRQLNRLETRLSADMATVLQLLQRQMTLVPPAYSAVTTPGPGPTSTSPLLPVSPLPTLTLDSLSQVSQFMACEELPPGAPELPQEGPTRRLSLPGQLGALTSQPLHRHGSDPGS", "assay": "primary screen, population patch clamp on CHO cells stably expressing hERG", "units": {"hERG current change (%, negative = inhibition) at 10uM": "%"}}
{"smiles": "CCOc1ccc(/C=N/Nc2cc(=O)n(C)c(=O)n2C)cc1", "hERG current change (%, negative = inhibition) at 10uM": -3.04}
{"smiles": "C=CCOc1ccc(CN(C)C(=O)C2CCCO2)cc1", "note": "(stereo not shown)", "hERG current change (%, negative = inhibition) at 10uM": 2.34}
{"smiles": "COc1ccccc1CCNC(=O)CN1C(=O)NC2(CCCC2)C1=O", "hERG current change (%, negative = inhibition) at 10uM": -9.26}
{"smiles": "COc1ccc(N2CCN(C(=O)C3CCN(S(=O)(=O)c4ccc(C)cc4)CC3)CC2)cc1", "hERG current change (%, negative = inhibition) at 10uM": -10.2}
{"smiles": "O=C(NCC1CCCO1)c1cc(S(=O)(=O)Nc2ccc(Br)cc2)ccc1Cl", "note": "(stereo not shown)", "hERG current change (%, negative = inhibition) at 10uM": -5.93}
{"smiles": "CCOC(=O)C1(Cc2ccccc2)NC(c2ccccc2F)C2C(=O)N(CC)C(=O)C21", "note": "(stereo not shown)", "hERG current change (%, negative = inhibition) at 10uM": -19.6}
{"smiles": "CC(C)C(=O)Nc1cccc(C(=O)Nc2nnc(C(C)C)s2)c1", "hERG current change (%, negative = inhibition) at 10uM": 7.3}
{"smiles": "CN(C)CCN(C(=O)C1CCN(S(=O)(=O)c2cccs2)CC1)c1nc2ccccc2s1.Cl", "hERG current change (%, negative = inhibition) at 10uM": -42.9}
{"smiles": "CCn1c(/C=C/c2ccccc2Cl)nc2ccccc2c1=O", "hERG current change (%, negative = inhibition) at 10uM": 19.1}
{"smiles": "Cc1occc1C(=O)Nc1ccc(S(=O)(=O)N2CCCC2)cc1", "hERG current change (%, negative = inhibition) at 10uM": -2.27}
{"smiles": "CC(C)c1nc(SCC(=O)Nc2ccc3c(c2)OCO3)n[nH]1", "hERG current change (%, negative = inhibition) at 10uM": 24.1}
{"smiles": "COC(=O)c1ccc2c(c1)NC(=O)C1CCCN21", "note": "(stereo not shown)", "hERG current change (%, negative = inhibition) at 10uM": -1.97}
{"smiles": "Cc1cnc(C(=O)NCc2ccc(Cl)cc2Cl)cn1", "hERG current change (%, negative = inhibition) at 10uM": -11.3}
{"smiles": "N#Cc1cnn2cc(-c3ncc(C(F)(F)F)cc3Cl)cnc12", "hERG current change (%, negative = inhibition) at 10uM": -20.2}
{"smiles": "O=C1[C@@H]2Cc3c([nH]c4ccccc34)C(c3cccc(Br)c3)N2C(=O)CN1C1CCN(Cc2ccccc2)CC1", "note": "(stereo partly shown)", "hERG current change (%, negative = inhibition) at 10uM": 4.66}
{"smiles": "CC(C)CNS(=O)(=O)c1ccc(CCC(=O)NCc2ccncc2)cc1", "hERG current change (%, negative = inhibition) at 10uM": 5.16}
{"smiles": "C/C(=N/NC(=O)c1cccc(C)c1)c1c(O)cc(C)oc1=O", "hERG current change (%, negative = inhibition) at 10uM": -4.3}
{"smiles": "O=C(Cn1nnc2ccccc21)OCc1ccccc1", "hERG current change (%, negative = inhibition) at 10uM": 15.8}
{"smiles": "COc1ccc(OC)c(C(=O)NC(CC(N)=O)c2ccc(NCC3CC3)c([N+](=O)[O-])c2)c1", "note": "(stereo not shown)", "hERG current change (%, negative = inhibition) at 10uM": -42}
{"smiles": "Cc1cccc(OCC(=O)Nc2ccccc2N2CCCC2)c1C", "hERG current change (%, negative = inhibition) at 10uM": -25.6}
{"smiles": "CC(=O)Nc1ccc2nc(NC(=O)COc3ccc([N+](=O)[O-])cc3)sc2c1", "hERG current change (%, negative = inhibition) at 10uM": 5.4}
{"smiles": "COc1ccc(C(=O)COC(=O)c2ccc([N+](=O)[O-])s2)cc1OC", "hERG current change (%, negative = inhibition) at 10uM": 1.16}
{"smiles": "O=C(NCCN1CCCCC1)c1cc(COc2c(F)cccc2F)on1", "hERG current change (%, negative = inhibition) at 10uM": -37.9}
{"smiles": "OC(CNc1ccccc1)COc1ccc(OCC(O)CNc2ccccc2)cc1", "note": "(stereo not shown)", "hERG current change (%, negative = inhibition) at 10uM": -11.5}
{"smiles": "Cc1[nH]c(C)c(C(=O)/C=C/c2ccc([N+](=O)[O-])cc2)c1C", "hERG current change (%, negative = inhibition) at 10uM": 6.04}
{"smiles": "CS(=O)(=O)Nc1cccc(C2=NN(S(C)(=O)=O)C(c3ccccc3)C2)c1", "note": "(stereo not shown)", "hERG current change (%, negative = inhibition) at 10uM": -30.9}
{"smiles": "Cc1ccc(NS(=O)(=O)c2cn(C)cn2)cc1", "hERG current change (%, negative = inhibition) at 10uM": 18.6}
{"smiles": "Cc1cccc(C(=O)Nc2ncc(CN3CCOCC3)s2)c1", "hERG current change (%, negative = inhibition) at 10uM": 13.4}
{"smiles": "CCN(CC)CCN(C(=O)c1ccc(C(=O)c2ccccc2)cc1)c1nc2c(OC)cccc2s1.Cl", "hERG current change (%, negative = inhibition) at 10uM": -68}
{"smiles": "Nc1nonc1C(=O)N/N=C/c1ccc(-c2cccc(C(=O)O)c2)o1", "hERG current change (%, negative = inhibition) at 10uM": 49.1}
{"smiles": "COc1ccc(-c2ccc3nnc(SCC(N)=O)n3n2)cc1", "hERG current change (%, negative = inhibition) at 10uM": 25.5}
{"smiles": "CCN(C(=O)C1CCN(c2nc(-c3ccc(OC)cc3)no2)CC1)c1ccccc1", "hERG current change (%, negative = inhibition) at 10uM": -24.7}
{"smiles": "O=C(O)CN=CC1=C(O)CC(c2ccccc2)CC1=O", "note": "(stereo not shown)", "hERG current change (%, negative = inhibition) at 10uM": 22.4}
{"smiles": "COc1cc(C(=O)N2CCC(NC(=O)C(Cc3ccc(C)cc3)NC(C)=O)CC2)cc(OC)c1OC", "note": "(stereo not shown)", "hERG current change (%, negative = inhibition) at 10uM": 12.1}
{"smiles": "CC/C(=N\\NC(=O)c1nnn(-c2nonc2N)c1-c1cccc(OC)c1)c1ccc(C)cc1", "hERG current change (%, negative = inhibition) at 10uM": 6.72}
{"smiles": "O=C(CN1C(=O)CCS(=O)(=O)c2ccccc21)NCc1ccccc1", "hERG current change (%, negative = inhibition) at 10uM": -0.0573}
{"smiles": "Cc1ccc(C(=O)NC(=S)N(C)C2CCCCC2)cc1Br", "hERG current change (%, negative = inhibition) at 10uM": 21.9}
{"smiles": "O=C(NCCCNC(=O)c1ccccc1F)c1ccco1", "hERG current change (%, negative = inhibition) at 10uM": 16.1}
{"smiles": "Nc1nccnc1C(=O)OCC(=O)NCCc1ccc(Cl)cc1", "hERG current change (%, negative = inhibition) at 10uM": -22}
{"smiles": "CCOC(=O)[C@@H]1[C@H]2COc3ccc(Br)cc3[C@@H]2N2C(=O)N(c3cccc(F)c3)C(=O)[C@]12C", "hERG current change (%, negative = inhibition) at 10uM": -4.89}
{"smiles": "CCN(CC)CCn1c2c(c(SCC(=O)Nc3cccc4ccccc34)nc1=O)CCCC2", "hERG current change (%, negative = inhibition) at 10uM": -63.8}
{"smiles": "Cc1c(-c2ccccc2)sc(Br)c1C(=O)N1CCOCC1", "hERG current change (%, negative = inhibition) at 10uM": -9.27}
{"smiles": "O=C(COc1ccc(Cl)cc1Cl)Nc1ccccc1NS(=O)(=O)c1cccs1", "hERG current change (%, negative = inhibition) at 10uM": 13.1}
{"smiles": "COC(=O)c1c(O)c2ccccc2[nH]c1=O", "hERG current change (%, negative = inhibition) at 10uM": -6.52}
{"smiles": "O=C(CN1C(=O)/C(=C/c2ccccc2F)Sc2ccccc21)NCC1CCCO1", "note": "(stereo not shown)", "hERG current change (%, negative = inhibition) at 10uM": -10.5}
{"smiles": "CCOc1ccc(N(Cc2cc3cc(C)ccc3[nH]c2=O)S(=O)(=O)c2ccccc2)cc1", "hERG current change (%, negative = inhibition) at 10uM": 11.2}
{"smiles": "Cc1nc2sc(C(c3cccc(F)c3)N3CCN(C(=O)c4ccco4)CC3)c(O)n2n1", "note": "(stereo not shown)", "hERG current change (%, negative = inhibition) at 10uM": -36}
{"smiles": "O=C(COC(=O)CNC(=O)c1cccs1)Nc1ccc(C(F)(F)F)cc1[N+](=O)[O-]", "hERG current change (%, negative = inhibition) at 10uM": -44}
{"smiles": "COc1ccc(Cl)cc1S(=O)(=O)n1nnc2ccccc21", "hERG current change (%, negative = inhibition) at 10uM": 12.5}
{"smiles": "Cn1c(=O)cc(OCC(=O)N2CCN(c3ccccc3F)CC2)c2ccccc21", "hERG current change (%, negative = inhibition) at 10uM": -17.5}
{"smiles": "Cc1ccc(Cc2cnc(NC(=O)c3ccco3)s2)cc1", "hERG current change (%, negative = inhibition) at 10uM": 9.83}
{"smiles": "CN(C)CCO/N=C(\\c1ccc(Br)cc1)c1cccnc1.O=C(O)C(=O)O", "hERG current change (%, negative = inhibition) at 10uM": -63.5}
{"smiles": "O=C(Nc1ccccc1N1CCCC1)c1ccc([N+](=O)[O-])cc1Cl", "hERG current change (%, negative = inhibition) at 10uM": -21.5}
{"smiles": "Cc1csc(SCC(=O)NC(C)c2ccccc2)n1", "note": "(stereo not shown)", "hERG current change (%, negative = inhibition) at 10uM": 1.33}
{"smiles": "O=C1CCC(=O)N1c1cccc(-c2nc3ccccc3o2)c1", "hERG current change (%, negative = inhibition) at 10uM": 8.68}
